# Laboratory results from PubChem BioAssay AID504332 (National Center for Advancing Translational Sciences (NCATS), 2011).
# The campaign covered roughly 350,000 compounds. About 31,000 (8.9%) were called active. This list was built around the results that the source calls inconclusive (neither active nor inactive); the mix of calls is not that of the screen. Calls follow the shape of the dose curve; as a rule, active = well fitted inhibition curve with a large enough effect; inconclusive = small, poorly fitted or top-dose-only effect; inactive = no such curve, though single readings can be large or run the other way. A potency beside an inconclusive call is a rough fit, not a confirmed value.
# Molecular target: Histone-lysine N-methyltransferase EHMT2 (Homo sapiens) (UniProt Q96KQ7)
# Experiment: qHTS Assay for Inhibitors of Histone Lysine Methyltransferase G9a; also: nearly all actives have a fitted effect of over 75% in size
# Conditions: G9a H3K9 monomethylation, AlphaScreen, 2 h; activity, negative = inhibition: at 59 µM (top of the series) unless noted
# Procedure, shortened: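 G9a (20 nM) was preincubated 15 min with compound, then reacted 2 h at room temperature with 500 nM biotin-H3K9 peptide and 20 µM SAM. Monomethyl-H3K9 detected by AlphaScreen using anti-H3K9me1 antibody.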
# % is scaled to controls: 0 for no effect and ±100 for the full control effect; potency is read from the fitted curve at half-maximal effect; tags tell the direction and shape of the fitted curve.
# UniProt Q96KQ7, sequence (Q96KQ7 whole entry, looked up): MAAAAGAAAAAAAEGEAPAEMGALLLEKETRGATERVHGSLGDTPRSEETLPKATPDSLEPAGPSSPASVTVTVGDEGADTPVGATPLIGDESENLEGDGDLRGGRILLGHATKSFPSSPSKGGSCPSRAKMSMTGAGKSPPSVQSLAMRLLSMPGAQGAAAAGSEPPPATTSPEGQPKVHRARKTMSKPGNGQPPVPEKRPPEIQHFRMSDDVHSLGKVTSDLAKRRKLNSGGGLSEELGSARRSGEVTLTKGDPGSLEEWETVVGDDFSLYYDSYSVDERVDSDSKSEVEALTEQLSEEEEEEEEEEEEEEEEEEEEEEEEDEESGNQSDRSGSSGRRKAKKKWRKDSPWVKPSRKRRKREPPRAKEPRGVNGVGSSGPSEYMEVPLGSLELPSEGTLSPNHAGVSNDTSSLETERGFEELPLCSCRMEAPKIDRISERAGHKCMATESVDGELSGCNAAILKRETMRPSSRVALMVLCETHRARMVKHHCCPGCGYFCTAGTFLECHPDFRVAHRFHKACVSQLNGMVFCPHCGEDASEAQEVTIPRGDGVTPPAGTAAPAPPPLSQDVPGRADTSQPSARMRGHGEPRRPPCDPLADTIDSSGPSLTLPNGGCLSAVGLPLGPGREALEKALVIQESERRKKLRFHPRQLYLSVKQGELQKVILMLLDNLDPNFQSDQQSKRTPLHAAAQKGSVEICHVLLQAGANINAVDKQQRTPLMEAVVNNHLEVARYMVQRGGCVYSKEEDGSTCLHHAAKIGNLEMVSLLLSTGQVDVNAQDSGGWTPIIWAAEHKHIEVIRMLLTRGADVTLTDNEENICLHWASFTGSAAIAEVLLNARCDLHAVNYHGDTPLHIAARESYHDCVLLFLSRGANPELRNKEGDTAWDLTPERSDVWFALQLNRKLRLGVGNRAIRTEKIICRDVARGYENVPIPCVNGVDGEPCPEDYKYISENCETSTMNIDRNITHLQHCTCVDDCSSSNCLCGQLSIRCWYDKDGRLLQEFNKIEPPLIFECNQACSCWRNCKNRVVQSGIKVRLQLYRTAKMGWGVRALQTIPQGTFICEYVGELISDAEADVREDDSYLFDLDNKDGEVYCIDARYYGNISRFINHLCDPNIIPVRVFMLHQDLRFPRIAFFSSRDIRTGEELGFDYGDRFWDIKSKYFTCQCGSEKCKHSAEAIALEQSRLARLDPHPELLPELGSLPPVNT
Structure (SMILES),Potency,"activity, negative = inhibition"
CCOC(=O)c1sc2cccc(F)c2c1S(=O)(=O)NCc1ccccc1Cl,"inconclusive: 31.6 µM [inhibitor, single point]",
CCCNC(=O)c1ccc(N2CCC3(CC2)CC(c2ccccc2)=NO3)c(NC(=O)c2cccc(C)c2)c1,"inconclusive: 89.1 µM [inhibitor, single point]",
COC(=O)c1sc2[nH]c(=S)n(N)c(=O)c2c1C,active: 7.94 µM,
Cc1n[nH]c(=O)c2c(NC(=O)CSc3nnc(-c4ccco4)n3C)oc(C)c12,"inconclusive: 3.16 µM [inhibitor, single point]",
O=C(CN1CCC(Cc2ccccc2)CC1)NC(=O)NC1CCCCC1,"inconclusive: 39.8 µM [inhibitor, full curve]",
COCCN(C(=O)COC(=O)CCS(=O)(=O)c1ccccc1)c1c(N)n(Cc2ccccc2)c(=O)[nH]c1=O,"inconclusive: 28.2 µM [inhibitor, partial curve, poor fit]",
COc1cc(C(=O)OCC(=O)NCCCc2ccccc2)ccc1OCC(C)C,inactive,
COc1ccc(NC(=O)CN2C(=O)CCn3nc(-c4cccn4C)cc32)cc1Cl,"inconclusive: 35.5 µM [inhibitor, single point]",
C=CCn1c(O)c(N=NC(=S)Nc2ccc(OC)c(Cl)c2)c2ccccc21,active: 35.5 µM,
Cc1ccc(NC(=O)CN2C(=O)c3ccccc3Sc3ccc(C(=O)N4CCOCC4)cc32)cc1F,"inconclusive: 1.26 µM [inhibitor, partial curve, poor fit]",
Brc1ccc(-c2ncc3ccccn23)cc1,"inconclusive: 70.8 µM [inhibitor, single point]",
COc1c(O)cc2oc(-c3ccc(O)c(O)c3)cc(=O)c2c1O,,inconclusive: -96.2% [inhibitor] [at 12.7 µM]
COc1ccc(CN(C)C(=O)CSc2nnc(C3CC3)n2C2CC2)cc1,"inconclusive: 50.1 µM [inhibitor, partial curve, poor fit]",
Cc1ccc(C(c2sc3nc(-c4ccco4)nn3c2O)N2CCCC2)cc1 (centres undefined),inactive,
COc1cc(SC)ccc1C(=O)Nc1ccc(S(=O)(=O)Nc2nccc(C)n2)cc1,inactive,
CC(C)OC(=O)c1c(NC(=O)COc2cccc(Br)c2)sc2c1CCCC2,"inconclusive: 39.8 µM [inhibitor, single point]",
CN(C)C(CNS(=O)(=O)c1ccc2ccccc2c1)c1ccccc1 (centres undefined),"inconclusive: 89.1 µM [inhibitor, single point]",
NS(=O)(=O)c1ccc(NC(=S)Nc2ccc(C(=O)N3CCCCC3)cc2)cc1,"inconclusive: 39.8 µM [inhibitor, partial curve, poor fit]",
CCCCNC(=O)c1ccccc1SCC(=O)NC1CCCCCCC1,,inactive: -13.2% [at 12.7 µM]
O=c1c(-c2ccccc2)nc2cnc(N3CCNCC3)nc2n1-c1ccccc1,,inactive: 0.613% [at 0.501 µM]
CCN(c1ccc(F)cc1)S(=O)(=O)c1ccc2[nH]cc(C(=O)NCCCN3CCOCC3)c(=O)c2c1,"inconclusive: 44.7 µM [inhibitor, partial curve, poor fit]",
CN(C)/C=C1/C=C(c2ccccc2)OC1=O,active: 35.5 µM,

Structure (SMILES),Potency,"activity, negative = inhibition"
O=C(CCNC(=O)c1ccccc1Cl)Nc1cccc(C(F)(F)F)c1,"inconclusive: 1.41 µM [inhibitor, full curve]",
O=C(CN1C(=O)/C(=C/c2cccc(Br)c2)SC1=S)Nc1cccnc1,"inconclusive: 20 µM [inhibitor, full curve]",
CCN(CC)C1CCN(C(=O)CCn2nnnc2CN2CCOCC2)C1 (centres undefined),inactive,
CCN(CC)CCn1c(-c2ccccc2)csc1=Nc1ccccc1,active: 2.24 µM,
COC(=O)C(C(=O)OC)C(C[N+](=O)[O-])c1ccc(O)c(OC)c1 (centres undefined),"inconclusive: 5.62 µM [inhibitor, full curve]",
COc1ccc2[nH]c(C)c(CCN(Cc3cccs3)C(=S)Nc3cccc(F)c3)c2c1,"inconclusive: 35.5 µM [inhibitor, single point]",
CC(C)S(=O)(=O)c1oc(-c2cccs2)nc1S(=O)(=O)c1ccc(F)cc1,"inconclusive: 8.91 µM [inhibitor, partial curve, poor fit]",
CCOc1ccc(N=C2NC(=O)CS2)cc1,,inactive: 9.89% [at 0.501 µM]
CCn1cc(C(=O)NCC(=O)OC)c2cc(OC)c(OC)cc2c1=O,inactive,
Cc1ccc(NC(=O)c2c(C)oc3ccc(O)c(CN4CCCCCC4)c23)cc1,inactive,
C=C(C)C(=O)Nc1cccc(C2=NOC3(C2)C[C@@H](C(N)=O)N(C(=O)CC(c2ccccc2)c2ccccc2)C3)c1 (some centres undefined),,inconclusive: -57.4% [inhibitor] [at 12.7 µM]
O=C(Sc1nnnn1C1CCCCC1)c1cccs1,"inconclusive: 2.24 µM [inhibitor, partial curve, poor fit]",
Cc1c(CC(=O)NCCc2ccccc2F)c(=O)oc2cc(O)c(Cl)cc12,inactive,
CCCn1c(NC(=O)c2ccc(Br)cc2)nc2ccccc21,inactive,
CCOC(=O)Nc1ccc2c(c1)N(C(=O)N1CCN(C)CC1)c1ccccc1CC2,inactive,
Cc1cccc2cc3c(N)c(C(=O)N4CCOCC4)sc3nc12,"inconclusive: 39.8 µM [inhibitor, single point]",
C=CCOc1ccc(CNc2ccc3[nH]c(=O)[nH]c3c2)cc1OCC,"inconclusive: 79.4 µM [inhibitor, partial curve, poor fit]",
COc1ccc(OC)c(-n2c(=O)c3ccccc3c3ccccc3c2=O)c1,active: 10 µM,
CCN(CCCNC(=O)c1cc(Nc2ccc(OC)cc2OC)nc2ccccc12)c1cccc(C)c1,"inconclusive: 3.98 µM [inhibitor, partial curve, poor fit]",
COc1cc(S(=O)(=O)Nc2ncccc2C)c(OC)cc1Cl,inactive,
NNC(=O)c1sc2nc(N3CCOCC3)c3c(c2c1N)CCCC3,"inconclusive: 56.2 µM [inhibitor, partial curve, poor fit]",
CC(=O)N1CCCc2cc(S(=O)(=O)NCc3ccc(C)cc3)ccc21,"inconclusive: 44.7 µM [inhibitor, partial curve, poor fit]",
